Measurements: patent US9388196B2, “Thiazole derivatives as alpha 7 nAChR modulators” (Lupin Limited, priority 2012, dated 2016)
Some results were stated once for a whole list of compounds, not compound by compound.

Molecular target: T1, α7 nAChR (Homo sapiens, UniProt P36544)
T1 construct: human IMR-32 cells with native expression of α7 nAChR; endogenous in cells; host or cells: IMR-32 (human neuroblastoma)
Assay: cell-based real-time kinetic FLIPR Ca2+ assay, potentiation of agonist response (fold PAM activity)
Settings: 1 μM test compound; human IMR-32 cells with native α7 nAChR; agonist PNU-282987, 10 μM; fold increase over agonist-alone effect

T1 sequence (P36544 23-502): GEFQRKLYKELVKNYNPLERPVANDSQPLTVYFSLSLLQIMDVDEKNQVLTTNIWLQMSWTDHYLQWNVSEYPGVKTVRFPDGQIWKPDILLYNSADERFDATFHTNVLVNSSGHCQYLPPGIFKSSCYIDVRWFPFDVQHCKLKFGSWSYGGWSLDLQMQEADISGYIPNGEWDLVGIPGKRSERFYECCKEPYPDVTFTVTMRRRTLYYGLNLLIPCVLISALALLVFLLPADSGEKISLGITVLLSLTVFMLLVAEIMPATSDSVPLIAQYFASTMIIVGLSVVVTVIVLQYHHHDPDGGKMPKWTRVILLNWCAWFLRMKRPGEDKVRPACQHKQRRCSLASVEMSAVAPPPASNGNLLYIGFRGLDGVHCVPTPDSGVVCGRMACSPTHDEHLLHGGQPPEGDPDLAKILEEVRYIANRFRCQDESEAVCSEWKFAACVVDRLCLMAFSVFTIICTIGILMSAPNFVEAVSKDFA

Structure (SMILES)	Fold activation at 1 μM conc. (Group)
C[C@@H]1CN(C(=O)c2nc(-c3ccc(F)c(F)c3)c(-c3ccc(S(N)(=O)=O)cc3)s2)C[C@H](C)O1 [Compound 38, (cis) 4-(4-(3,4-difluorophenyl)-2-(2,6-dimethylmorpholine-4-carbonyl)thiazol-5-yl)benzenesulfonamide]	B (the compounds with activity between 5.1 folds and 15 folds are grouped as B)
C[C@@H]1CN(C(=O)c2nc(-c3ccc(Cl)c(C4CC4)c3)c(-c3ccc(S(N)(=O)=O)cc3)s2)C[C@H](C)O1 [Compound 39, (cis) 4-(4-(4-chloro-3-cyclopropylphenyl)-2-(2,6-dimethylmorpholine-4-carbonyl)thiazol-5-yl)benzenesulfonamide]	A (compounds with activity between 1 to 5 folds are grouped as A)
Cc1cc(-c2nc(C(=O)N3CCCC3)sc2-c2ccc(S(N)(=O)=O)cc2)ccc1Cl [Compound 40, 4-(4-(4-chloro-3-methylphenyl)-2-(pyrrolidine-1-carbonyl)thiazol-5-yl)benzenesulfonamide]	C (the compounds with activity above 15 folds are grouped as C)
C[C@@H]1CN(C(=O)c2nc(-c3ccc4[nH]ccc4c3)c(-c3ccc(S(N)(=O)=O)cc3)s2)C[C@H](C)O1 [Compound 41, (cis) 4-(2-(2,6-dimethylmorpholine-4-carbonyl)-4-(1H-indol-5-yl)thiazol-5-yl)benzenesulfonamide]	A (compounds with activity between 1 to 5 folds are grouped as A)
C[C@@H]1CN(C(=O)c2nc(-c3ccc4c(ccn4C)c3)c(-c3ccc(S(N)(=O)=O)cc3)s2)C[C@H](C)O1 [Compound 42, (cis) 4-(2-(2,6-dimethylmorpholine-4-carbonyl)-4-(1-methyl-1H-indol-5-yl)thiazol-5-yl)benzenesulfonamide]	A (compounds with activity between 1 to 5 folds are grouped as A)
C[C@@H]1CN(C(=O)c2nc(-c3ccc4c(c3)CCC4)c(-c3ccc(S(N)(=O)=O)cc3)s2)C[C@H](C)O1 [Compound 43, (cis) 4-(4-(2,3-dihydro-1H-inden-5-yl)-2-(2,6-dimethylmorpholine-4-carbonyl)thiazol-5-yl)benzenesulfonamide]	A (compounds with activity between 1 to 5 folds are grouped as A)
CC(=O)N1CCc2cc(-c3nc(C(=O)N4C[C@@H](C)O[C@@H](C)C4)sc3-c3ccc(S(N)(=O)=O)cc3)ccc21 [Compound 44, (cis) 4-(4-(1-acetylindolin-5-yl)-2-(2,6-dimethylmorpholine-4-carbonyl)thiazol-5-yl)benzenesulfonamide]	A (compounds with activity between 1 to 5 folds are grouped as A)
C[C@@H]1CN(C(=O)c2nc(N3CCc4c(Cl)cccc43)c(-c3ccc(S(N)(=O)=O)cc3)s2)C[C@H](C)O1 [Compound 45, (cis) 4-(4-(4-chloroindolin-1-yl)-2-(2,6-dimethylmorpholine-4-carbonyl)thiazol-5-yl)benzenesulfonamide]	A (compounds with activity between 1 to 5 folds are grouped as A)
Cc1cc(-c2sc(C(=O)N3C[C@@H](C)O[C@@H](C)C3)nc2-c2ccc(Cl)cc2)ccc1S(N)(=O)=O [Compound 46, (cis) 4-(4-(4-chlorophenyl)-2-(2,6-dimethylmorpholine-4-carbonyl)thiazol-5-yl)-2-methylbenzenesulfonamide]	C (the compounds with activity above 15 folds are grouped as C)
C[C@@H]1CN(C(=O)c2nc(-c3ccc(Cl)cc3)c(-c3ccc(S(N)(=O)=O)cc3F)s2)C[C@H](C)O1 [Compound 47, (cis) 4-(4-(4-chlorophenyl)-2-(2,6-dimethylmorpholine-4-carbonyl)thiazol-5-yl)-3-fluorobenzenesulfonamide]	C (the compounds with activity above 15 folds are grouped as C)
C[C@@H]1CN(C(=O)c2nc(-c3ccc(Cl)cc3)c(-c3ccc(S(N)(=O)=O)c(F)c3)s2)C[C@H](C)O1 [Compound 48, (cis) 4-(4-(4-chlorophenyl)-2-(2,6-dimethylmorpholine-4-carbonyl)thiazol-5-yl)-2-fluorobenzenesulfonamide]	C (the compounds with activity above 15 folds are grouped as C)
C[C@@H]1CN(C(=O)c2nc(-c3ccc(Cl)cc3)c(-c3ccc(S(N)(=O)=O)c(C(F)(F)F)c3)s2)C[C@H](C)O1 [Compound 49, (cis) 4-(4-(4-chlorophenyl)-2-(2,6-dimethylmorpholine-4-carbonyl)thiazol-5-yl)-2-(trifluoromethyl)benzenesulfonamide]	C (the compounds with activity above 15 folds are grouped as C)
NS(=O)(=O)c1ccc(-c2sc(C(=O)N3CCCCC3)nc2-c2ccc(Cl)cc2)c(F)c1 [Compound 50, 4-(4-(4-chlorophenyl)-2-(piperidine-1-carbonyl)thiazol-5-yl)-3-fluorobenzenesulfonamide]	C (the compounds with activity above 15 folds are grouped as C)
Cc1cc(-c2sc(C(=O)N3CCC(F)(F)CC3)nc2-c2ccc(Cl)cc2)ccc1S(N)(=O)=O [Compound 51, 4-(4-(4-chlorophenyl)-2-(4,4-difluoropiperidine-1-carbonyl)thiazol-5-yl)-2-methylbenzenesulfonamide]	B (the compounds with activity between 5.1 folds and 15 folds are grouped as B)
NS(=O)(=O)c1ccc(-c2sc(C(=O)N3CCCC3)nc2-c2ccc(Cl)cc2)c(F)c1 [Compound 52, 4-(4-(4-chlorophenyl)-2-(pyrrolidine-1-carbonyl)thiazol-5-yl)-3-fluorobenzenesulfonamide]	C (the compounds with activity above 15 folds are grouped as C)
NS(=O)(=O)c1ccc(-c2sc(C(=O)N3CCCC3)nc2-c2ccc(Cl)cc2)cc1F [Compound 53, 4-(4-(4-chlorophenyl)-2-(pyrrolidine-1-carbonyl)thiazol-5-yl)-2-fluorobenzenesulfonamide]	C (the compounds with activity above 15 folds are grouped as C)
Cc1cc(-c2sc(C(=O)N3C[C@@H](C)O[C@@H](C)C3)nc2-c2ccc(Cl)c(C3CC3)c2)ccc1S(N)(=O)=O [Compound 54, (cis) 4-(4-(4-chloro-3-cyclopropylphenyl)-2-(2,6-dimethylmorpholine-4-carbonyl)thiazol-5-yl)-2-methylbenzenesulfonamide]	A (compounds with activity between 1 to 5 folds are grouped as A)
NS(=O)(=O)c1ccc(-c2sc(N3CC4CCC(C3)O4)nc2-c2ccc(Cl)cc2)cc1 [Compound 55, 4-(2-(8-oxa-3-azabicyclo[3.2.1]octan-3-yl)-4-(4-chlorophenyl)thiazol-5-yl)benzenesulfonamide]	A (compounds with activity between 1 to 5 folds are grouped as A)
NS(=O)(=O)c1ccc(-c2sc(N3CC4CCC(C4)C3)nc2-c2ccc(Cl)cc2)cc1 [Compound 59, 4-(2-(3-azabicyclo[3.2.1]octan-3-yl)-4-(4-chlorophenyl)thiazol-5-yl)benzenesulfonamide]	A (compounds with activity between 1 to 5 folds are grouped as A)
NS(=O)(=O)c1ccc(-c2sc(N3CC4CC4C3)nc2-c2ccc(Cl)cc2)cc1 (stereo not shown) [Compound 60, 4-(2-(3-azabicyclo[3.1.0]hexan-3-yl)-4-(4-chlorophenyl)thiazol-5-yl)benzenesulfonamide]	C (the compounds with activity above 15 folds are grouped as C)
C[C@@]12CN(c3nc(-c4ccc(Cl)cc4)c(-c4ccc(S(N)(=O)=O)cc4)s3)C[C@]1(C)C2 [Compound 61, (cis) 4-(4-(4-chlorophenyl)-2-(1,5-dimethyl-3-azabicyclo[3.1.0]hexan-3-yl)thiazol-5-yl)benzenesulfonamide]	A (compounds with activity between 1 to 5 folds are grouped as A)
NS(=O)(=O)c1ccc(-c2sc(N3CCC4(CC3)CC4)nc2-c2ccc(Cl)cc2)cc1 [Compound 62, 4-(4-(4-chlorophenyl)-2-(6-azaspiro[2.5]octan-6-yl)thiazol-5-yl)benzenesulfonamide]	B (the compounds with activity between 5.1 folds and 15 folds are grouped as B)
NS(=O)(=O)c1ccc(-c2sc(N3CCCC4(CC4)C3)nc2-c2ccc(Cl)cc2)cc1 [Compound 63, 4-(4-(4-chlorophenyl)-2-(5-azaspiro[2.5]octan-5-yl)thiazol-5-yl)benzenesulfonamide]	C (the compounds with activity above 15 folds are grouped as C)
NS(=O)(=O)c1ccc(-c2sc(N3CCc4ccccc4C3)nc2-c2ccc(Cl)cc2)cc1 [Compound 64, 4-(4-(4-chlorophenyl)-2-(3,4-dihydroisoquinolin-2(1H)-yl)thiazol-5-yl)benzenesulfonamide]	A (compounds with activity between 1 to 5 folds are grouped as A)
NS(=O)(=O)c1ccc(-c2sc(N3CCCc4ccccc43)nc2-c2ccc(Cl)cc2)cc1 [Compound 65, 4-(4-(4-chlorophenyl)-2-(3,4-dihydroquinolin-1(2H)-yl)thiazol-5-yl)benzenesulfonamide]	A (compounds with activity between 1 to 5 folds are grouped as A)
NS(=O)(=O)c1ccc(-c2sc(N3CC4CC4C3)nc2-c2ccc(F)cc2F)cc1 (stereo not shown) [Compound 66, 4-(2-(3-azabicyclo[3.1.0]hexan-3-yl)-4-(2,4-difluorophenyl)thiazol-5-yl)benzenesulfonamide]	C (the compounds with activity above 15 folds are grouped as C)
NS(=O)(=O)c1ccc(-c2sc(C(=O)N3CC4CCC(C3)O4)nc2-c2ccc(Cl)cc2)cc1 [Compound 67, 4-(2-(8-oxa-3-azabicyclo[3.2.1]octane-3-carbonyl)-4-(4-chlorophenyl)thiazol-5-yl)benzenesulfonamide]	A (compounds with activity between 1 to 5 folds are grouped as A)
NS(=O)(=O)c1ccc(-c2sc(C(=O)N3CC4CCC(C4)C3)nc2-c2ccc(Cl)cc2)cc1 [Compound 71, 4-(2-(3-azabicyclo[3.2.1]octane-3-carbonyl)-4-(4-chlorophenyl)thiazol-5-yl)benzenesulfonamide]	A (compounds with activity between 1 to 5 folds are grouped as A)
